The antibiotic and cytotoxicity screens of Wong et al. (2023)
Some of the results follow.

What follows are compounds tested on S. aureus RN4220 (assay: growth inhibition call (relative growth <= 0.2)). Conditions: 50 µM.

Growth inhibition call, inactive:
COCCOC(=O)N1C(=O)[C@@]2(c3cc(C#CCCO)ccc31)[C@H](c1ccc(O)cc1)N1[C@H](c3ccccc3)[C@H](c3ccccc3)OC(=O)[C@H]1[C@@H]2C(=O)N1CCc2cc(OC)c(OC)cc2C1
C[C@@H]1CN([C@H](C)CO)C(=O)c2cc(C#CC3(O)CCCC3)cnc2O[C@@H]1CN(C)C(=O)Cc1cccnc1
CO[C@@H](CN(C)S(=O)(=O)c1ccc(Cl)cc1)[C@@H](C)CN([C@@H](C)CO)S(=O)(=O)c1cccc(Cl)c1
Cc1ccc(S(=O)(=O)N(C)C[C@H]2OCCCC[C@H](C)Oc3ccc(NC(=O)Nc4ccccc4)cc3C(=O)N([C@H](C)CO)C[C@@H]2C)cc1
COc1ccc(NC(=O)N(C)C[C@H]2OCCCC[C@@H](C)Oc3ccc(NS(=O)(=O)c4ccc(Cl)cc4)cc3C(=O)N([C@H](C)CO)C[C@H]2C)cc1
COc1cccc(-c2ccc3c(c2)O[C@H](CN(C)C(=O)C2CCC2)[C@@H](C)CN([C@@H](C)CO)S3(=O)=O)c1
C[C@@H]1CN([C@H](C)CO)C(=O)c2cc(NC(=O)Cn3cnnn3)ccc2O[C@H]1CN(C)C(=O)Nc1ccc2c(c1)OCO2
N#CCC(=O)N1CCCCC1
COc1ccc(NC(=O)Nc2ccc3c(c2)C(=O)N([C@@H](C)CO)C[C@H](C)[C@H](CN(C)CC2CCCCC2)OCCCC[C@@H](C)O3)cc1
C=CCC[C@H](Cc1ccc(F)cc1)C(=O)OC[C@@H](Cc1c[nH]c2ccccc12)NC(=O)[C@H](CC=C)CC(=O)N(CCO)Cc1ccccc1
C[C@@H]1CCCCO[C@@H](CN(C)C(=O)c2ccncc2)[C@H](C)CN([C@H](C)CO)C(=O)c2cc(NS(C)(=O)=O)ccc2O1
C[C@@H]1CCCCO[C@@H](CN(C)C(=O)CCC(F)(F)F)[C@@H](C)CN([C@@H](C)CO)C(=O)c2cc(NC(=O)Cc3ccccc3)ccc2O1
CN(C)c1ccc(O)c2c1CC1CC3C(N(C)C)C(O)=C(C(N)=O)C(=O)C3(O)C(O)=C1C2=O.Cl (stereo unspecified)
CC(=O)N1CCC2(CCCN2)CC1
COc1ccc(S(=O)(=O)N2C[C@@H](O)COC[C@@H]3O[C@@H](CC(=O)N[C@H]4CCN(Cc5ccccc5)C4)CC[C@H]32)cc1
C[C@H]1CN([C@@H](C)CO)C(=O)c2cccc(NC(=O)C3CCCCC3)c2O[C@@H]1CN(C)Cc1ccc(-c2ccccc2)cc1
COc1nn(C)cc1C(=O)N1CCN(C)CC1
O=c1cc(-c2cc(O)c(O)c(O)c2)oc2cc(O)cc(O)c12
CCCCCS(=O)(=O)CCCCCCCCCCn1c(-c2ccc(O)cc2)c(C)c2cc(O)ccc21
C[n+]1ccc(CCCO)cc1
Cc1ccc(S(=O)(=O)N[C@H]2CC[C@H](CCNC(=O)CN3CCOCC3)O[C@@H]2CO)cc1
C[C@H]1CN([C@@H](C)CO)C(=O)c2cc(NC(=O)Cc3cn(C)c4ccccc34)ccc2O[C@@H]1CN(C)C(=O)Nc1ccc(C(F)(F)F)cc1
C[C@@H]1CN([C@@H](C)CO)C(=O)Cc2cc(NC(=O)Cn3cnnn3)ccc2O[C@H]1CN(C)S(C)(=O)=O
Cc1noc(C)c1NC(=O)Nc1ccc2c(c1)CC(=O)N([C@@H](C)CO)C[C@@H](C)[C@@H](CN(C)Cc1ccc(-c3ccccc3)cc1)O2
C[C@H](CO)N1C[C@H](C)[C@@H](CN(C)Cc2ccc(-c3ccccc3)cc2)Oc2c(NC(=O)Nc3ccc4c(c3)OCO4)cccc2C1=O
Cc1ccc(S(=O)(=O)Nc2ccc3c(c2)C(=O)N([C@@H](C)CO)C[C@@H](C)[C@H](CN(C)C(=O)Nc2c(C)noc2C)OCCCC[C@H](C)O3)cc1
C[C@@H]1CN([C@H](C)CO)S(=O)(=O)c2ccc(C#CCN(C)C)cc2O[C@H]1CN(C)Cc1ccncc1
CCS(=O)(=O)N1C[C@]2(CCN(CC2)C(=O)NC2CCCC2)c2c(n(c3cc(ccc23)OC)C)[C@@H]1CO
COC(=O)C1=C(C)NC(C)=C(C(=O)OCCCN2CCC(c3ccccc3)(c3ccccc3)CC2)[C@@H]1c1cccc([N+](=O)[O-])c1
Cc1cc(CC(=O)O)n(C)c1C(=O)c1ccc(Cl)cc1
C[C@H]1CN([C@@H](C)CO)C(=O)c2cccc(NS(=O)(=O)c3ccc(Cl)cc3)c2O[C@@H]1CN(C)Cc1ccc(-c2ccccc2)cc1
